The full ranking holds about 33,000 sequences; the median of “E-score (-0.5 to 0.5)” is about -0.011, and the highest 2% start at about 0.28. The list shows a part of the results.
Target: T1, Gcr1 (UniProt P07261)
T1 sequence: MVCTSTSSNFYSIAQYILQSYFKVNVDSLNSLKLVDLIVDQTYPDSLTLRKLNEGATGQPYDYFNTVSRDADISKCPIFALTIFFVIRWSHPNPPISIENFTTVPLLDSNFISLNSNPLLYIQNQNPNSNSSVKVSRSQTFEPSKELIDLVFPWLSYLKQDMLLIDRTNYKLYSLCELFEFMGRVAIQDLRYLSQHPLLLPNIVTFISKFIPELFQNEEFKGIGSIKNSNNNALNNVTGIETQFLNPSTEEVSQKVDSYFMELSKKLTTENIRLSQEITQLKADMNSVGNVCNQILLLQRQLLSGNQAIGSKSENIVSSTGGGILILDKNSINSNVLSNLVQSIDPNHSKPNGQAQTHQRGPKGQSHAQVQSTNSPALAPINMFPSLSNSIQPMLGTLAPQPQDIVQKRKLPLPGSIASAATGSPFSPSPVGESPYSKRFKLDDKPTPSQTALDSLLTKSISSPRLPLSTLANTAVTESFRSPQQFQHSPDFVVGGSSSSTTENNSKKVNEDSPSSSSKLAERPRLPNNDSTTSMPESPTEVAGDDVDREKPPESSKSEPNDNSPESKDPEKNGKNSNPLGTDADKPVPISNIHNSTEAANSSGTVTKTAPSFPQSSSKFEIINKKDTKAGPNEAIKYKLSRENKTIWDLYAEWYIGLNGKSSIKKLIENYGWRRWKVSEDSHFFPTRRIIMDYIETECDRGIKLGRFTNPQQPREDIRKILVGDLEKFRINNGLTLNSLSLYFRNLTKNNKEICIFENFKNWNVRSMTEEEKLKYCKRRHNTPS
Assay: PBM E-score (8-mer binding enrichment) (E-score (-0.5 to 0.5)); higher = stronger / more preferred TF binding; most listed sequences are background and not binding sites
Settings: protein concentration: 100 nM; construct: GST-full length
Summary of the method: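 Yeast transcription factors carrying a GST tag, as full-length proteins or DNA-binding domains, were produced by PURExpress in vitro transcription/translation. About 100-200 nM protein was applied to universal all-10-mer Agilent arrays, double-stranded by primer extension on fresh or once-stripped slides. Bound protein was detected with fluorescent anti-GST, and scans were normalised with masliner. The Universal PBM Analysis Suite gave each ungapped eight-base word, pooled with its reverse complement, an E-score, a modified Wilcoxon-Mann-Whitney statistic.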

| Sequence | PBM E-score |
| --- | --- |
| AAGGCACT | 0.0375 |
| TCATTGGA | -0.0473 |
| CTCATTAA | 0.135 |
| CCATTGCG | -0.147 |
| CCCTATGA | 0.122 |
| CTCTCTCC | -0.0838 |
| CGGTCGAG | 0.0179 |
| GTGCGAGA | -0.0259 |
| CGAAGAAC | -0.128 |
| AATTAGTA | 0.211 |
| AGTCTCTA | -0.188 |
| CCGGTAGC | 0.222 |
| CTCAGTTA | 0.125 |
| GCAGGAAA | 0.0396 |
| TGATGAAA | -0.0671 |
| ACACCTCG | 0.0311 |
| GAGGACGA | -0.0483 |
| CTCCCTGC | -0.259 |
| ATTGCACG | 0.0734 |
| AATAGGAC | 0.206 |
| AATCGTAC | 0.0574 |
| ATAGTATA | -0.0176 |
| GCAATAAC | -0.184 |
| GACCGACA | -0.0639 |
| GCTTTATA | 0.093 |

| Sequence | PBM E-score |
| --- | --- |
| GAATCGAA | 0.241 |
| ACTCAATA | 0.156 |
| CATGTACG | -0.0811 |
| CTTCAAAA | 0.104 |
| CAGTCAGC | -0.0658 |
| AAAATGGA | 0.142 |
| AGAAACCT | -0.0336 |
| ACACCGAA | 0.0782 |
| GTCCGTCA | 0.0199 |
| AGCGTCTA | 0.307 |
| ACTACTCT | -0.094 |
| GACCGAGC | -0.154 |
| ACTGGACA | 0.0644 |
| ACGTGACA | -0.124 |
| AATGTATA | -0.0223 |
| GCATGGAA | -0.181 |
| CAGCGTTC | -0.0576 |
| GACCAGCC | -0.185 |
| CTGTCGTC | -0.0446 |
| AGGGGTCG | -0.186 |
| CTGCTGAA | 0.0667 |
| ATGAAACA | -0.0461 |
| TACAACTA | 0.0122 |
| AGCAGCAC | -0.0251 |
| GGATGACC | -0.187 |

| Sequence | PBM E-score |
| --- | --- |
| AGAGTAAG | -0.111 |
| CCGTGCAA | -0.159 |
| AGTGTCAC | -0.117 |
| AACACTAT | -0.0104 |
| CGGATGGC | -0.151 |
| GCGTTCGA | -0.184 |
| ACATTTTA | 0.247 |
| CTAACTCA | -0.106 |
| ATCGAACA | -0.0618 |
| CTAGATTC | 0.183 |
| CGTTTTAA | 0.134 |
| ACCAAAGG | -0.0537 |
| CCCAATGC | -0.0734 |
| CCCTGGTC | -0.251 |
| ACCTGAAT | 0.172 |
| GTAATTTA | 0.109 |
| GCGCGGAC | 0.012 |
| AAAGTGAA | 0.111 |
| GAGTATAA | -0.153 |
| TCCCTAAA | 0.139 |
| AGACGGAA | -0.0525 |
| ACGAATTA | 0.0985 |
| AACGGTTG | -0.168 |
| ACTCCACA | 0.1 |
| ATTCGGGC | 0.0222 |

| Sequence | PBM E-score |
| --- | --- |
| CTACTCAC | -0.0637 |
| AACCCGAC | 0.0284 |
| CAATCTCC | 0.0196 |
| CCTGGTGA | 0.121 |
| AAGTGACT | -0.0465 |
| CGTGGGTC | -0.251 |
| AGAGGGAC | -0.246 |
| AAACTCAA | 0.046 |
| CGAAGCGA | -0.105 |
| ATGTTTCC | 0.042 |
| ACAGCAGT | -0.0218 |
| CGGGCGGC | 0.0469 |
| AGCCCAAA | 0.179 |
| GGCGCAAA | -0.0189 |
| CCCGCCAA | -0.207 |
| GCCAGAGC | -0.0666 |
| ACGTCTGC | -0.157 |
| ACAAGTTA | 0.0121 |
| AAAAGACG | 0.131 |
| ACGCCGAG | -0.0928 |
| AGCTCGCG | -0.0019 |
| CACGACCG | -0.191 |
| AGGACGCG | 0.283 |
| GGTGCAAC | -0.0806 |
| GAGTCGGA | 0.036 |

| Sequence | PBM E-score |
| --- | --- |
| ATTGTTAC | 0.184 |
| TAAGGAAA | -0.0269 |
| CGGTTCGA | -0.0867 |
| AGAGCCGG | 0.0486 |
| ATTATCTC | 0.0819 |
| CTGGCAAG | 0.0198 |
| CAGTAGAG | -0.0878 |
| AGCTTATG | 0.0485 |
| AACGTGGT | 0.0562 |
| GATCCACC | -0.00046 |
| GAATTCTC | 0.157 |
| AGAGCCCA | 0.0698 |
| ATACTGGC | 0.161 |
| CCGATTCC | 0.124 |
| AGGTGCAG | -0.205 |
| CCATCGGG | -0.0175 |
| AGTTGTGC | -0.0521 |
| GGCTGGTA | -0.0695 |
| CCTTAAAA | 0.13 |
| ATCCATAG | -0.169 |
| CCAGTATA | 0.235 |
| ATCAAGCA | 0.0584 |
| CTGCGGTC | 0.0555 |
| TATGACGA | 0.0408 |
| AGTCTATG | -0.147 |

| Sequence | PBM E-score |
| --- | --- |
| ATGAAGAA | 0.0394 |
| GCTCATAC | -0.289 |
| GAAAGCCC | 0.0298 |
| GATCTCGC | -0.16 |
| CAATTCTC | -0.0342 |
| ATTGTGTC | -0.0665 |
| ACTTATAC | 0.0669 |
| AAGTAAGT | -0.139 |
| AACGGCAG | 0.0355 |
| AAAGTTAA | 0.0767 |
| CTGCCGCC | -0.0844 |
| GTTGCCTA | -0.0107 |
| GACCATCA | -0.251 |
| CAAGTTGA | 0.0659 |
| AGTCGGAC | -0.093 |
| TACTATGA | -0.00506 |
| GAGCGCTC | -0.0936 |
| GTTGGACA | -0.00959 |
| ATAGAAAG | 0.0346 |
| ATACCGCG | 0.127 |
| ATTTATTG | 0.107 |
| AACAGTAT | -0.00126 |
| CCATTGAG | 0.12 |
| ACTTATGG | 0.163 |
| GCTGGGTA | -0.0497 |

| Sequence | PBM E-score |
| --- | --- |
| ACAGATAG | -0.00305 |
| ATGCACTC | -0.126 |
| ATACCAAA | 0.174 |
| AACTTCTC | 0.00601 |
| CCGATTTC | 0.0757 |
| CCCCGCCC | 0.338 |
| ATTTCGTA | 0.122 |
| CTTGAGAA | 0.0493 |
| AACGTTCC | 0.032 |
| GGAGTTTA | -0.0666 |
| CGAAATGC | -0.237 |
| GCCGATAC | -0.172 |
| CACGCATC | 0.198 |
| ATACTCCG | -0.0531 |
| AACGAGTG | -0.0992 |
| TAACAGGA | 0.198 |
| CGGCGCAG | -0.0325 |
| AGTACCAC | 0.0794 |
| ACCCTCAT | -0.111 |
| CCGGTTAG | 0.185 |
| GCTAGTGA | -0.0869 |
| CGCCTAAC | 0.166 |

From the supplement of paper PMC3334620
